Laboratory results taken from patent US20240254259A1 (NATIONAL RESEARCH COUNCIL CANADA, published 2024).

T1: full length human DPEP-1 displayed on HEK293T / HEK293-6E cells (human, UniProt P16444 17-385)
T1 construct: whole, on cells; GPI-anchored on the cell surface; also called hDPEP-1
T1 sequence (looked up): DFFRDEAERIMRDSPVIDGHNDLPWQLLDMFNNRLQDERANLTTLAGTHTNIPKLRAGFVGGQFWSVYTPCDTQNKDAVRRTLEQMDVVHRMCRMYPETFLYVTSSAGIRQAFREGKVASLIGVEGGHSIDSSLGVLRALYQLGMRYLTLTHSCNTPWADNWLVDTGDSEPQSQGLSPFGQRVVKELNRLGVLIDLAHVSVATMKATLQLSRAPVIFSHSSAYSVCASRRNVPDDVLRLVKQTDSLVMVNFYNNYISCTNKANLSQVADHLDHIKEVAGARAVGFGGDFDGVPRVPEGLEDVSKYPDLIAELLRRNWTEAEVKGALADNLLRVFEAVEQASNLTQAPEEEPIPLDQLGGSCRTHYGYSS

T2: full length mouse DPEP-1 on HEK293-6E cells (mouse, UniProt P31428 17-384)
T2 construct: whole, on cells
T2 sequence (looked up): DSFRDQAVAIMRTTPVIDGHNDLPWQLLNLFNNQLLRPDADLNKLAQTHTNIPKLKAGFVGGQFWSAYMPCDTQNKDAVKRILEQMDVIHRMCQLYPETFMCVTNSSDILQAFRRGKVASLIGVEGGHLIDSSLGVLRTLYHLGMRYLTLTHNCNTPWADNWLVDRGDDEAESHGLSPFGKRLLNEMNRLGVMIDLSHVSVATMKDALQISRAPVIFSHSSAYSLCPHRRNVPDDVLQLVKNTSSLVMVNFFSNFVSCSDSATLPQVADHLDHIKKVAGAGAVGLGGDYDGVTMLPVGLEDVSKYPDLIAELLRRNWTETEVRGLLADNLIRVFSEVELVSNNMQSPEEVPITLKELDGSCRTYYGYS

B1: sdABP06-Fc (VHH fused to human IgG1 hinge-Fc) (Fc fusion)
chain: EVQLVDSGGGLVQPGGSLRLSCAASGFTFSNYDMSWVRQGPGKGPEWVSIISYVGGLTRYSDSVKGRFTISRDNAKNTLYLQMNSLNTEDTALYYCARVKSMHPTSTTGEYDYRGRGTQVTVSSA[not shown - human IgG1 Fc]
notes: Bivalent VHH-Fc, human IgG1 hinge/Fc, made in HEK293-6E cells; also called sdABP06 VHH-Fc
B2: sdABP03-Fc (VHH fused to human IgG1 hinge-Fc) (Fc fusion)
chain: EVQLVESGGGLVQPGGSLRLSCATSEFTLDYYAIGWFRQAPGKEREGVSCISSSGGTTNYADSVKGRFTISSDNAKNTVSLQMNSLRPEDTAVYYCAAARVSAYYLGNYGCLNAEYGYWGQGTQVTVSSA[not shown - human IgG1 Fc]
notes: Bivalent VHH-Fc, human IgG1 hinge/Fc, made in HEK293-6E cells; also called sdABP03 VHH-Fc
B3: sdABP07-Fc (VHH fused to human IgG1 hinge-Fc) (Fc fusion)
chain: EVQLVESGGGLVEYGGSLRLSCAASESTLDNYAIAWFRQAPGKEREVVSCVGKSGGRSDYADSVKGRFTISRDNAKNTVYLQMNSLKPEDTAVYSCAARRVWFGGCVLGTSQGQYDYWGQGTQVTVSSA[not shown - human IgG1 Fc]
notes: Bivalent VHH-Fc, human IgG1 hinge/Fc, made in HEK293-6E cells; also called sdABP07 VHH-Fc
B4: sdABP05-Fc (VHH fused to human IgG1 hinge-Fc) (Fc fusion)
chain: EVQLVESGGGLVQPGGSLRLSCAASGFTFSTYAMTWVRKAPGKGFEWISSIDSGGGVTLYADSVKGRFTISKDNAKNTLYLQMNNLKPDDTAVYYCVKNYGSTSLQSRGQGTQVTVSSA[not shown - human IgG1 Fc]
notes: Bivalent VHH-Fc, human IgG1 hinge/Fc, made in HEK293-6E cells; also called sdABP05 VHH-Fc
B5: sdABP09-Fc (VHH fused to human IgG1 hinge-Fc) (Fc fusion)
chain: QVQLVESGGGLVQPGGSLRLSCAASGFTFSSYGMTWVRQAPGKGFEWVSTISISGSRTTYAGSVKDRFTISRDNAKNTLYLQMNSLKPEDTAVYYCRNILVQGQGTQVTVSSA[not shown - human IgG1 Fc]
notes: Bivalent VHH-Fc, human IgG1 hinge/Fc, made in HEK293-6E cells; also called sdABP09 VHH-Fc
B6: sdABP08-Fc (VHH fused to human IgG1 hinge-Fc) (Fc fusion)
chain: EVQLVSSGGGLVQPGGSLRLSCKASRFTLERYTIGWFRQAPGKEREGIACISSSGGDTNYADSVKGRFTISRDNVVEKVYLQMDSLKPEDTAVYYCAARTYACDYKSRWLTYEFRGQGTQVTVSSA[not shown - human IgG1 Fc]
notes: Bivalent VHH-Fc, human IgG1 hinge/Fc, made in HEK293-6E cells; also called sdABP08 VHH-Fc

Target: T1, full length human DPEP-1 displayed on …
Experiment: flow cytometry EC50 on human DPEP-1-expressing cells, VHH-Fc against its monomeric VHH

Row | Fold improvement (EC50 of VHH against EC50 of VHH-Fc) [fold] | Binder
1 | 1.6 | B1
2 | 611 | B2
3 | 16.7 | B3
4 | 9 | B4

Target: T1, full length human DPEP-1 displayed on …
Experiment: flow cytometry, VHH-Fc titrated on HEK293-6E cells expressing human DPEP-1; apparent EC50
Description: None of the VHH-Fcs bound to parental, non-DPEP-1-expressing HEK293-6E cells at 125 nM (see FIG. 8E). […] Measurements were in triplicate.
(§1) Transient transfection of HEK293-6E cells were carried out with 100 μg pcDNA3.1 expression plasmid encoding full length human DPEP-1, mouse DPEP-1, rat DPEP-1 or human DPEP-2 combined with 100 μg of PEIpro®, DNA transfection reagent (VWR, Cat #71002-812). Cell surface expression of DPEP-1 or DPEP-2 (DPEP-1/2) were carried out for 96 h. To assess cell binding of VHH-Fcs by flow cytometry, DPEP-1/2 expressing cells were harvested and washed once by PBS centrifugation, and resuspended at 1× 10⁶ cells/mL in PBSB (PBS containing 1% [w/v] BSA) and 0.05% [w/v] sodium azide [SIGMA, Cat #S2002]). Fifty μL of individual DPEP-expressing cells were incubated with 50 μL of VHH-Fcs (250 nM) for 1 h on ice. Subsequently, cells were washed twice with PBSB by centrifugation for 5 min at 1200 rpm, and then incubated for an additional hour on ice with 50 μL of R-Phycoerythrin-conjugated AffiniPure Fab Fragment Goat Anti-Human IgG, Fc Fragment Specific (Jackson Immunoresearch, Cat #109-117-008) at 2 μg/mL diluted in PBSB. After a final wash, cells were resuspended in 100 μL PBSB and data were acquired on a CytoFLEX S flow cytometer (Beckman Coulter) and analyzed by FlowJo software (FlowJo LLC, v10.6.2, Ashland). The binding of the anti-human DPEP-1 rabbit pAb (Proteintech, Cat #12222-1-AP) positive control was detected using goat anti-rabbit IgG antibody conjugated to R-phycoerythrin (Thermo Fisher, Cat #P-2771MP).
Flow cytometry experiments performed with variable concentrations of VHH-Fcs against human and mouse DPEP-1-expressing HEK293-6E cells allowed determination of apparent EC₅₀s. Affinities against human DPEP-1-expressing HEK293-6E cells were determined to be high (low EC₅₀s; range: 0.6-1.8 nM; median: 0.9 nM) (FIG. 9; Table 7).

Row | EC50 [pM] | Binder
5 | 600 | B1
6 | 900 | B5
7 | 900 | B2
8 | 900 | B3
9 | 600 | B4
10 | 700 | B6

Target: T1, full length human DPEP-1 displayed on …
Experiment: flow cytometry on human DPEP-1-expressing HEK293-6E cells, VHH-Fc (Table 8 restating Table 7)

Row | EC50 [pM] | Binder
11 | 600 | B1
12 | 900 | B5
13 | 900 | B2
14 | 900 | B3
15 | 600 | B4
16 | 700 | B6

Target: T1, full length human DPEP-1 displayed on …
Experiment: flow cytometry, VHH-Fc titrated on HEK293-6E cells expressing human DPEP-1; apparent EC50 (FIG. 10)

Row | EC50 [pM] | Binder
17 | 800 | B1

Target: T2, full length mouse DPEP-1 on HEK293-6E …
Experiment: flow cytometry, VHH-Fc titrated on HEK293-6E cells expressing mouse DPEP-1; apparent EC50 (FIG. 10)
Description: Measurements were in duplicate.
as §1, with “Subsequently, cells were washed twice with PBSB by centrifugation for 5 min at 1200 rpm, and then incubated for an additional hour on ice with 50 μL of R-Phycoerythrin-conjugated AffiniPure Fab Fragment Goat Anti-Human IgG, Fc Fragment Specific (Jackson Immunoresearch, Cat #109-117-008) at 2 μg/mL diluted in PBSB.” left out

Row | EC50 [pM] | Binder
18 | 2800 | B1
19 | 3900 | B4
